# What was measured:
# [1] = target: mouse GPC3-His protein (Sino Biological, Cat. No. 50989-M08B) (mouse) (UniProt Q8CFZ4); experiment: ELISA; antibody 1 nM
# [2] = target: mouse GPC3-His protein (Sino Biological, Cat. No. 50989-M08B) (mouse) (UniProt Q8CFZ4); experiment: ELISA; antibody 10 nM
# [3] = target: mouse GPC3-His protein (Sino Biological, Cat. No. 50989-M08B) (mouse) (UniProt Q8CFZ4); experiment: ELISA; antibody 0.1 nM
# [4] = target: mouse GPC3-His protein (Sino Biological, Cat. No. 50989-M08B) (mouse) (UniProt Q8CFZ4); experiment: ELISA; antibody 100 nM
# [5] = target: mouse GPC3-His protein (Sino Biological, Cat. No. 50989-M08B) (mouse) (UniProt Q8CFZ4); experiment: ELISA; antibody 0.01 nM
# [6] = target: mouse GPC3-His protein (Sino Biological, Cat. No. 50989-M08B) (mouse) (UniProt Q8CFZ4); experiment: ELISA; antibody 0.001 nM
# [7] = target: mouse GPC3-His protein (Sino Biological, Cat. No. 50989-M08B) (mouse) (UniProt Q8CFZ4); experiment: ELISA; antibody 0.0001 nM
# UniProt Q8CFZ4, sequence (Q8CFZ4 25-558 limits assumed): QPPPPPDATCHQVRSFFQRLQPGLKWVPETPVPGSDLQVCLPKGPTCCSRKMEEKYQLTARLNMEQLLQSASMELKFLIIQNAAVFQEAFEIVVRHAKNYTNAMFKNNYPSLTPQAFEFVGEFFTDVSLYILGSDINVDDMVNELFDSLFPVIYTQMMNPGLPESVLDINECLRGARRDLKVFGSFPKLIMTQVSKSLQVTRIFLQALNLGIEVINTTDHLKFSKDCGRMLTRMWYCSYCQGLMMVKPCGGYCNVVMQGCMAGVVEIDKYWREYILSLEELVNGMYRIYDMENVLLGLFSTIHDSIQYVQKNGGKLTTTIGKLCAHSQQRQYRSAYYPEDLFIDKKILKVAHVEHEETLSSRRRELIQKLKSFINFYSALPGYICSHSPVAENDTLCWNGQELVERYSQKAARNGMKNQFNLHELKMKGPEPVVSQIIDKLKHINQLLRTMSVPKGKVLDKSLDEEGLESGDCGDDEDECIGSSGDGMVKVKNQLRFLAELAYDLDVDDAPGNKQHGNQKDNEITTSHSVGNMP
binder,measurement,setting,value
S001-NB150-20(cyno+) VHH-hFc (Fc fusion) QVQLVESGGGLVQAGGSLKLSCAASGRSFSPYAMGWFRQAPGKDREFVAAISNSGGSTYYADAVKGRFSISRDNAKNTVYLQMNNLEPEDTAVYYCTGPVKRYSTDFQGGDYWGQGTQVTVSS[human IgG1 Fc with changes left out],OD450,[1],0.074
same,OD450,[2],0.293
same,OD450,[3],0.053
same,OD450,[4],0.837
same,OD450,[5],0.049
same,OD450,[6],0.05
same,OD450,[7],0.05
